In PubChem BioAssay AID485344 (National Center for Advancing Translational Sciences (NCATS), 2010) one finds inhibition data, which are given here for 95 molecules.

Each structure is given as a SMILES string. Screen size: about 340,000 compounds; about 6,900 (2%) were called active. Rule as the data show it: active = inhibition above about 30%; inactive = below that, where a call was filed. This is a selection; strong and weak results do not stand in their true shares. The source gives no active or inactive call for entries shown without one.

This experiment concerns the target D(2) dopamine receptor (Homo sapiens) (UniProt P14416). Nature of the experiment: HTS Assay for Allosteric Antagonists of the Human D2 Dopamine Receptor: Primary Screen for Antagonists. Also: 0% is about no effect. The settings on record: HEK293 TREx D2 cells, calcium flux, dopamine EC80; at 10 µM; stronger effect = higher value. In a few lines: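 Tetracycline-induced HEK293 TREx cells expressing D2 receptor forced-coupled to calcium signalling, loaded with no-wash calcium dye. Compounds added and calcium flux read 180 s, then dopamine added at EC80 and read a further 180 s.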
Chain of UniProt P14416 (P14416 whole entry, looked up): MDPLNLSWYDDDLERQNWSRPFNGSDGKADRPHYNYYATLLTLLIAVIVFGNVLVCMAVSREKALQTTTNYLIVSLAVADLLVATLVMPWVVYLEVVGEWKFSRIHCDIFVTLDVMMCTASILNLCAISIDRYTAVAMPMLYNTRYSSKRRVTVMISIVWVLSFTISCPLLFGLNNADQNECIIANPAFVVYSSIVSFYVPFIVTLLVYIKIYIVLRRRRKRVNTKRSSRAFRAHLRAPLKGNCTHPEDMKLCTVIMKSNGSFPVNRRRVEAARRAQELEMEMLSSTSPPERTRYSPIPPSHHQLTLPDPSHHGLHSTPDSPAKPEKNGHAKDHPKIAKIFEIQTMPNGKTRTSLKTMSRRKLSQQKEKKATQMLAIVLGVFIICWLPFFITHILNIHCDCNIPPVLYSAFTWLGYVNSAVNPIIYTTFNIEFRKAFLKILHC
On to `CCN1CCN(C(c2ccc(C)cc2)c2c(O)cc(C)n(Cc3ccco3)c2=O)CC1` (stereo not given), for which the inhibition is -4.94%.

`CN(Cc1ccccc1)S(=O)(=O)c1ccc2[nH]c3c(c2c1)CCCCC3`: the inhibition was -0.853%.

Take `Cc1ccc(N2CCN(C(=O)c3cnn(-c4ccc(F)cc4F)c3C3CCN(C(=O)OC(C)(C)C)CC3)CC2)c(C)c1`: the inhibition is 8.64%.

In the case of `COc1ccc(-n2nc(C(=O)O)c(=O)n(C)c2=O)cc1`, the inhibition came out at 16%.

Regarding `CC(=O)c1cccc(NC(=O)Nc2nnc(N3CCCC3)s2)c1`, the inhibition came out at 7.28%.

For the molecule `CC(=O)c1cc(-c2ccc(F)cc2)n(CC(=O)NC2CCC(C)CC2)c1C` (stereo not given), the inhibition worked out at 10.8%.

In the case of `CCOC(=O)c1c(C)n(-c2ccccc2)c2ccc(OC(=O)c3cccc(C)c3)cc12`, the inhibition is 9.69%.

As to `COc1cccc(CNC(=O)c2ccc3c(=O)n4nc(Nc5ccccc5)sc4nc3c2)c1`, the inhibition was -16.6%.

For `CCCOc1ccc(CNC(=O)c2ccc(C)c(-n3c(C)nc4cccnc43)c2)cc1`, the inhibition stood at 6.18%.

`Cc1oc2ncn(C)c(=O)c2c1C(=O)NCCCN1CCCCC1C` (stereo not given): the inhibition is 0.493%.

Turning to `O=C(Nc1cccc(C(F)(F)F)c1)N1CC2CCCN2c2ccccc21` (stereo not given), the inhibition is 4.42%.

With `Cc1cccc(NC(=O)Cn2nc3c4ccccc4n(Cc4ccccc4)cc-3c2=O)c1`, the inhibition was found to be 3.16%.

For `COc1ccc(-n2nc(C(=O)Nc3ccc(Cl)cn3)c3c4ccccc4n(C)c3c2=O)cc1`, the inhibition was -4.25%.

With `CCN(CC)C(=O)N1CCN(C)CC1`, the inhibition is active: 32.5%.

Consider `COc1ccc2cc(-c3nnc(Nc4ccccc4)s3)c(=O)oc2c1`, for which the inhibition came out at 2.15%.

Take `CCCCN(CCCC)CCNC(=O)CN1C(=O)CSc2ccc(S(=O)(=O)N3CCOCC3)cc21`: the inhibition is -7.02%.

As for `COc1ccc(NC(=O)c2c(C)oc3ccc(O)c(CN4CCN(Cc5ccccc5)CC4)c23)cc1Cl`, the inhibition is 10.3%.

In the case of `COc1ccc(C(CNC(=O)c2cccc(Br)c2)N2CCCC2)cc1` (stereo not given), the inhibition was active: 40.9%.

Turning to `COc1ccc(-c2cc3nc(C)c(CCC(=O)N4CCN(c5ccc(F)cc5)CC4)c(C)n3n2)c(OC)c1`, the inhibition is 9.32%.

Consider `Cc1ccc(Nc2nc3ccccc3c3nnc(C)n23)c(C)c1`, for which the inhibition is -3.06%.

On to `CC(C)c1nnc(NC(=O)C2CCCN2C(=O)Nc2ccccc2F)s1` (stereo not given), for which the inhibition was active: 38%.

On to `CCOC(=O)CN(Cc1ccccc1)C(C(=O)NC1CCCCC1)c1ccc(OC)cc1` (stereo not given), for which the inhibition was determined as 16.3%.

As for `CC(=O)c1cccc(NC(=O)C(CC(C)C)NS(=O)(=O)c2ccc3c(c2)CCN3C(C)=O)c1` (stereo not given), the inhibition is -16.7%.

With `COc1ccc(Cl)cc1NC(=O)c1ccc2c(c1)CCN2S(C)(=O)=O`, the inhibition is 23.6%.

For `CCOc1cc(C(=O)Nc2cccc3cccnc23)cc(OCC)c1OCC`, the inhibition was -3.72%.

Consider `Cc1cc(NC(=O)CSc2nc(-c3ccccc3C)nc3c2c(=O)n(C)c(=O)n3C)no1`, for which the inhibition worked out at 11.1%.

As for `COc1cccc(Nc2sc(C(=O)c3ccc(Cl)cc3)c(N)c2C(=O)NCc2ccc(C)cc2)c1`, the inhibition was -26%.

Turning to `O=C(NCCc1ccccc1)c1ccc2c(c1)N(Cc1ccccc1)C(=O)c1ccccc1S2(=O)=O`, the inhibition came to 10.5%.

As to `COc1ccc(CNC(=O)c2cc(=O)[nH]c3ccc(S(=O)(=O)N4CCCC4)cc23)c(OC)c1`, the inhibition is -2.28%.

On to `NS(=O)(=O)c1ccc(CCNc2ncnc3c2cnn3-c2cccc(Cl)c2)cc1`, for which the inhibition is 5.78%.

Take `COc1ccc(CCC(=O)NCc2nc3cccnc3n2Cc2ccc(F)cc2)cc1`: the inhibition was -10.4%.

For `CN(CC(=O)Nc1ccccc1F)S(=O)(=O)c1ccc2c(c1)c(=O)n(C)c(=O)n2C`, the inhibition was -4.36%.

Turning to `CC1CCN(S(=O)(=O)c2ccc3c(c2)c(=O)c(C(=O)NC(C)c2ccccc2)cn3C)CC1` (stereo not given), the inhibition was -3.24%.

For `Cc1ccc(-c2nnc(Nc3cccc(O)c3)c3ccccc23)cc1S(=O)(=O)NCC1CCCO1` (stereo not given), the inhibition is -2.32%.

In the case of `Cc1ccc(Cl)cc1N1CCN(C(=O)c2ccc3c(c2)CCN3S(=O)(=O)c2ccccc2)CC1`, the inhibition is 1.62%.

With `Cc1c(Cl)cccc1NC(=O)C1CCCN(c2ncnc3onc(C)c23)C1` (stereo not given), the inhibition is -1.25%.

With `CCCCOc1ccc(NC2=NC3(CCCCC3)N=C(N)N2)cc1`, the inhibition is active: 35.5%.

Take `Cc1oc2ccc(O)c(CN3CCCC3)c2c1C(=O)Nc1ccc(C(C)C)cc1`: the inhibition came out at 8.71%.

Regarding `C#CCOc1ccc(-c2nnc(Nc3ccc(NC(C)=O)cc3)c3ccccc23)cc1`, the inhibition was -8%.

`CCc1cc2ccc(OC)cc2nc1SCC(=O)NNC(C)=O`: the inhibition is active: 57.4%.

With `Cc1ccc(Cl)cc1N1CCN(C(=O)c2c(C)oc3ncnc(N4CCCCC4)c23)CC1`, the inhibition turned out to be 7.6%.

In the case of `CCCCOc1cccc(C(=O)Nc2cc(NC(=O)c3ccco3)ccc2OC)c1`, the inhibition is -1.5%.

For `CCc1ccc(CN2CCc3nc(N4CCN(c5ccccc5F)CC4)ncc3C2)cc1`, the inhibition is 8.4%.

For `CCc1cc(C(=O)Nc2sc(C)c(CC)c2C#N)no1`, the inhibition worked out at 0.83%.

Regarding `CC(c1ccccc1)n1cc2c(c1-c1ccccc1Br)c(=O)n(C)c(=O)n2C` (stereo not given), the inhibition stood at 11.7%.

With `COc1ccc(-c2cnc(C)o2)cc1S(=O)(=O)Nc1c(C)cc(C)cc1C`, the inhibition was -7.95%.

Consider `CCc1ccc(C2=C(C)C(N3CCC(C(=O)NCc4ccccc4)CC3)=NS2(=O)=O)cc1`, for which the inhibition was 7.23%.

As for `Cc1ccc2c(c1)-c1c(cnc3cc(-c4ccc(F)cc4)nn13)CO2`, the inhibition is 4.38%.

On to `Cc1ccc(CNC(=O)c2c(O)nc3cc(C)ccn3c2=O)cc1`, for which the inhibition is 17.4%.

Take `COc1cccc(NC(=O)CCc2c(C)nc3nc(CNC(=O)c4cccc(F)c4)nn3c2C)c1`: the inhibition is -5.27%.

As for `CC(=O)c1ccc(NC(=O)c2noc3c2CSc2ccccc2-3)cc1`, the inhibition turned out to be 16.7%.

Consider `COc1ccc(CCNC(=O)c2cnn(-c3cccc(C)c3)c2C2CCN(C(=O)OC(C)(C)C)CC2)cc1OC`, for which the inhibition is 9.76%.

Consider `COc1cccc2c1ncc1c(-c3ccc(C)cc3)nn(-c3ccc(F)cc3)c12`, for which the inhibition was -7.79%.

As to `Cc1cccc(-c2nnn3c2nc(NCc2ccc4c(c2)OCO4)c2ccccc23)c1`, the inhibition was -15.6%.

Turning to `Cc1ccc(S(=O)(=O)Nc2cc3c(cc2NCc2ccccc2)n(C)c(=O)n3C)cc1`, the inhibition is 14.2%.

Consider `O=C(Cn1c(=O)nc(-c2ccccc2)c2cc(Cl)ccc21)N1CCN(c2ccccc2F)CC1`, for which the inhibition is 9.37%.

On to `Cc1cc(C)nc(N(C#N)Cc2ccccc2C)n1`, for which the inhibition was active: 49.8%.

For the molecule `CCOC(=O)c1sc2ccccc2c1S(=O)(=O)N1CCN(c2cccc(C)c2)C(C)C1` (stereo not given), the inhibition was 17.9%.

Consider `COc1ccc2c(c1)CC(C(=O)NCCCN1CCN(c3cccc(Cl)c3)CC1)CO2` (stereo not given), for which the inhibition was 1.41%.

With `Cc1ccc(/C=C\c2nccc3c2[nH]c2ccccc23)cc1`, the inhibition is active: 44.3%.

Turning to `Cc1ccc(CC(=O)NCc2ccc(Cl)cc2)cc1`, the inhibition was active: 52.6%.

In the case of `CSc1ncc(C(=O)N2CCN(c3cccc(Cl)c3)CC2)c(C)n1`, the inhibition is -14.5%.

On to `O=C(CCCn1c(=O)c2cccn2c2cccnc21)NCc1ccccc1Br`, for which the inhibition amounted to 8.88%.

Take `O=C(CC1C(=O)N(c2ccccc2)C(=O)N1CCc1cccs1)Nc1ccc(F)cc1` (stereo not given): the inhibition was -13.4%.

Take `CCOc1ccc(CCNC(=O)Cn2nnc(-c3ccccc3Cl)n2)cc1OCC`: the inhibition is -0.151%.

`Cc1ccc(CNc2nc(-c3ccco3)nn2S(=O)(=O)c2ccc3ccccc3c2)cc1`: the inhibition is -4.89%.

For the molecule `O=C(CSc1ncc(-c2ccccc2)[nH]1)Nc1ccc(Cl)cc1`, the inhibition is 21.4%.

As for `Cc1cccc(-n2ncc(C(=O)N3CCN(c4ccc(C)cc4C)CC3)c2C2CCN(C(=O)OC(C)(C)C)CC2)c1`, the inhibition is 4.18%.

With `Cc1cc(N2CCN(C)CC2)nc2ccc(NC(=O)Nc3cccc(Cl)c3)cc12`, the inhibition is -15.6%.

With `Cc1cn(C)c(CC(=O)NCc2ccccc2)c1C(=O)O`, the inhibition is -3.41%.

For `Cc1ccsc1CN(C(=O)c1oc2ccc(Br)cc2c1C)C1CCS(=O)(=O)C1` (stereo not given), the inhibition was 4.04%.

For `CCN1c2ccccc2-c2nc(SCC(=O)NCc3ccc(Cl)cc3)ncc2S1(=O)=O`, the inhibition was determined as 7.9%.

Take `CCOc1ccc(C2c3c(oc4ccc(C)cc4c3=O)C(=O)N2CCCN2CCOCC2)cc1` (stereo not given): the inhibition was -16.9%.

In the case of `CCOc1ccc(Nc2c(S(=O)(=O)c3ccc(Cl)cc3)cnc3ccc(OCC)cc23)cc1`, the inhibition is -0.204%.

As to `Cc1ccccc1CNC(=O)c1oc2c(c1C)-c1[nH]ncc1CC2`, the inhibition is -16.7%.

For `Cc1ccc2nc(Cl)c3cc(C(=O)N4CCCCC4C)sc3c2c1` (stereo not given), the inhibition was -4.63%.

Consider `Cc1ccccc1Nc1nn2c(=O)c3ccc(C(=O)NCCc4ccc(Cl)cc4)cc3nc2s1`, for which the inhibition is -0.755%.

For `COc1ccc(Cl)cc1NC(=O)CN1C(=O)C(C)(C)c2cc(S(=O)(=O)N3CCCCC3)ccc21`, the inhibition was determined as 4.22%.

Turning to `CC(C)C1C(=O)Nc2ccc(S(=O)(=O)NCCc3ccc(Cl)cc3)cc21` (stereo not given), the inhibition turned out to be 0.867%.

On to `CCCOc1ccc(-c2nn(-c3ccccc3)cc2C2NC(=O)NC(C)=C2C(=O)OC)cc1C` (stereo not given), for which the inhibition amounted to 13.3%.

Take `CCc1cccc(NC(=O)c2ccc(CN3C(=O)C(C)=C(c4ccc(OC)cc4)S3(=O)=O)cc2)c1`: the inhibition was -28%.

Consider `CCOc1ccccc1NC(=O)Nc1nnc(N2CCCCCC2)s1`, for which the inhibition is -23.4%.

As for `Cc1ccccc1CNC(=O)C1CCCN(S(=O)(=O)N(C)c2ccc(F)cc2)C1` (stereo not given), the inhibition was determined as 3.54%.

Turning to `CCC(=O)N1CCc2cc(Br)cc(S(=O)(=O)CCC(=O)NCCc3ccc(Cl)cc3)c21`, the inhibition was -2.22%.

Consider `CC(C)CCN(Cc1ccco1)C(=O)c1cc2c(Cl)nc3ccccc3c2s1`, for which the inhibition is 1.87%.

With `COc1ccc([N+](=O)[O-])cc1NC(=S)NC(NC(=O)Cc1ccc(OC)c(OC)c1)C(Cl)(Cl)Cl` (stereo not given), the inhibition is active: 73.9%.

`COc1ccc(-c2noc(CSCC(=O)Nc3cccc(C(F)(F)F)c3)n2)cc1OC`: the inhibition is -3.08%.

Regarding `Cc1occc1C(=O)NNC(=O)c1ccccc1C(=O)O`, the inhibition is active: 30.7%.

As to `COc1ccc(-c2cc(C)no2)cc1S(=O)(=O)NCCCN1CCCCCC1`, the inhibition was active: 33.7%.

As for `CCOc1ccc(C2Nc3ccccc3-c3nnc(SCc4ccccc4)nc3O2)cc1OC` (stereo not given), the inhibition is -12.3%.

`Cc1cc2c(OCC(O)CNC3CCCCC3)cccc2[nH]1` (stereo not given): the inhibition was active: 60.2%.

`COc1cc(C(=O)Nc2ccc3oc(-c4ccccc4)nc3c2)cc(OC)c1OC`: the inhibition is -9.51%.

For `COc1cc(NC(=O)Cn2ncc3c([nH]c4ccc(C)cc43)c2=O)cc(OC)c1OC`, the inhibition was -9.02%.

As for `COc1cc(Cl)c(C)cc1NC(=O)CSc1ncc(S(=O)(=O)c2ccc(C(C)(C)C)cc2)c(=O)[nH]1`, the inhibition was 3.11%.

In the case of `Cn1c2ccccc2c2c(C(=O)N3CCN(c4ccc(F)cc4)CC3)cn(C3CCCCC3)c(=O)c21`, the inhibition was -5.23%.

A word on the inhibition: it is the change of the read-out against control, counted positive when it falls.
